According to PMC4336329 (PLoS ONE, 2015):
The campaign covered roughly 310,000 compounds. About 2,200 (0.71%) showed an effect of 50% or more. The effect is printed as a negative number. The list shows a part of the results.

biological target: human ether-à-go-go-related gene (hERG) potassium channel (human, UniProt Q12809); test: primary screen, population patch clamp on CHO cells stably expressing hERG
Sequence (Q12809 whole entry, looked up): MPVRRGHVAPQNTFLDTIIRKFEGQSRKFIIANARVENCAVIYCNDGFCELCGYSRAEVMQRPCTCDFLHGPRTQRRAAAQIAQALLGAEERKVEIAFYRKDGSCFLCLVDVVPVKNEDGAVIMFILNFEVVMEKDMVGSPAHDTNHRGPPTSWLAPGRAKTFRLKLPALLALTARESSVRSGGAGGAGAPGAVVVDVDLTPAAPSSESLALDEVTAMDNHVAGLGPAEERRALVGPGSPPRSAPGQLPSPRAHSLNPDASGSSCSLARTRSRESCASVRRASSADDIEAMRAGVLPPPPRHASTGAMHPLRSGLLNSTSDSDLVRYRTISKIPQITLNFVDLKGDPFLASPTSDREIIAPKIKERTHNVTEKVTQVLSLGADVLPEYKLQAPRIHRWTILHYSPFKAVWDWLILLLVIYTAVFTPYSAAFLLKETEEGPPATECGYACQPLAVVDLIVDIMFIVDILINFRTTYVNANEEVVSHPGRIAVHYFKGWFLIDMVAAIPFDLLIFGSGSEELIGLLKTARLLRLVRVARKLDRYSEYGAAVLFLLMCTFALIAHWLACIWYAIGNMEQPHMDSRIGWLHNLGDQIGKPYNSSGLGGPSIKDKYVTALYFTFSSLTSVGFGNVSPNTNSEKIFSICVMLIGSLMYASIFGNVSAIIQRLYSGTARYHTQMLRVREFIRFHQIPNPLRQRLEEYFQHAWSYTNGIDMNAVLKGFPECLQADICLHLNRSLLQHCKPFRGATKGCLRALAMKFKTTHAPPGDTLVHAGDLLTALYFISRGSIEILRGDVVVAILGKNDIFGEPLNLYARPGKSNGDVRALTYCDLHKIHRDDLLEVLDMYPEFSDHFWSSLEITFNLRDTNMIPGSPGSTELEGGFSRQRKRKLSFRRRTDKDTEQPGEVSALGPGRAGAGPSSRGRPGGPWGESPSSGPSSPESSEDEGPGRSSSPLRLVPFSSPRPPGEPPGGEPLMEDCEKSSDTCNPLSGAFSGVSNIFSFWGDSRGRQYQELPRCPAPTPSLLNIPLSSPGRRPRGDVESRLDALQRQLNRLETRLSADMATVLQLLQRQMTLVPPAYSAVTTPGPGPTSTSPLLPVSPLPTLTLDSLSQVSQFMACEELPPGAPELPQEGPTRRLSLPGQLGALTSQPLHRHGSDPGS

SMILES | hERG current change (%, negative = inhibition) at 1uM
CCc1ccc(OCc2nnc(SCCN3CCOCC3)n2C)cc1.O=C(O)C(=O)O | 9.79%
N#Cc1c(/N=C/c2c(O)n(Cc3ccco3)c(=O)[nH]c2=O)sc2c1CCCC2 | -0.139%
Brc1cccc(-c2cnc3n2CCCCC3)c1.Cl | -16%
Cn1c(=O)oc2cc(S(=O)(=O)NCc3cccnc3)ccc21 | 8.9%
Cc1csc(NC(=O)[C@@H](NC(=O)c2ccccc2)C(C)C)n1 | 9.25%
CC1(C)CC(=O)C(C(c2ccccc2F)C2C(=O)CC(C)(C)CC2=O)C(=O)C1 | 11.5%
OCc1nc2ccc(Cl)cc2[nH]1 | 4.24%
CCN(CC)c1ccc(NC(=O)Cn2ncc3c(C)n(Cc4ccccc4F)c(C)c3c2=O)c(C)c1 | 9.67%
O=C(NC1CCCC1)C(c1ccccc1)N(Cc1ccccc1)C(=O)c1csnn1 (stereo not shown) | 5.13%
Cc1cc(C)c2[nH]c(=S)cc(C)c2c1 | 17.8%
CN1CCN(C(=S)NC(=O)/C=C/c2ccccc2)CC1 | -16.5%
CCNC(=O)COC(=O)CNC(=O)c1cc(Cl)cc([N+](=O)[O-])c1 | 8.53%
CN(CC(=O)NCc1ccncc1)S(=O)(=O)c1ccc(Cl)cc1 | -13.5%
O=C(NCc1ccccc1)Nc1cccc2ccccc12 | 12.9%
N#Cc1ccc(NC(=O)CNc2cc(S(=O)(=O)N3CCOCC3)ccc2NCC2CCCO2)cc1 (stereo not shown) | 6.86%
O=C(Nc1ccc2c(c1)CCC2)c1cc(=O)[nH]c2ccccc12 | 7.36%
O=C(COC(=O)c1cc(Br)ccc1O)Nc1ccc2c(c1)OCO2 | 8.89%
CCOC(=O)c1c(C)[nH]c(C(=O)N2CCCC(C(=O)c3ccccc3OC)C2)c1C (stereo not shown) | 7.08%
Cc1nc(-c2cccc(NC(=O)C(C)Oc3ccccc3)c2)cs1 (stereo not shown) | 17.8%
CC(=O)N1CC=CC1(CC(C)C)C(=O)NCc1cc(F)cc(C(F)(F)F)c1 (stereo not shown) | 11.4%
CCCCNC(=O)Nc1ncn[nH]1 | 10.3%
NC(=NC(=O)c1ccccc1)C1=C(O)CCC1=O | 12.8%
CCn1c(-c2cccc(Br)c2)n[nH]c1=S | 14.6%
O=C1c2ccccc2S(=O)(=O)c2cc(C(=O)N3CCN(C(=O)c4ccccc4)CC3)ccc21 | 3.33%
CC(=O)NC(=S)Nc1ccccc1C(=O)NC1CCCCC1 | 4.03%
